Measurements as given in the BET-seq Pho4 binding data (Le et al. 2018).
This is one part of the list. These are noisy estimates, calculated here from bound and input reads.

The sequences below were run against T1, Pho4 (S. cerevisiae) (UniProt P07270) (assay: relative binding free energy (BET-seq); higher = weaker binding). Conditions: reference: library average.
T1 sequence: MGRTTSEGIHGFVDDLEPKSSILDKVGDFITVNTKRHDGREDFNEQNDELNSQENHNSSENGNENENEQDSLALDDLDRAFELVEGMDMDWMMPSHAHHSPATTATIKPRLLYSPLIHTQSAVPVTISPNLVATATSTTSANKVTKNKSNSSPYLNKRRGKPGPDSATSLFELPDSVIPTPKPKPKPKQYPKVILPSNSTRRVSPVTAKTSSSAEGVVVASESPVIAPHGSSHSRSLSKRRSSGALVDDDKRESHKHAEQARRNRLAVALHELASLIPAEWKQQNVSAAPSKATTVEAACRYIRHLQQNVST

Row | Sequence | relative binding free energy [kcal/mol]
1 | TTGGACACGTGACGGT | 0.13
2 | TGGAGCACGTGAGTCG | 0.19
3 | AGAAGCACGTGGAGTT | 0.06
4 | TGCGACACGTGAGTGT | 0.2
5 | TTATCCACGTGGATGG | -0.07
6 | AAGGGCACGTGTGATT | -0.12
7 | TGTGCCACGTGAATAT | 0.3
8 | GATAGCACGTGGTTAA | -0.04
9 | AGATGCACGTGTTGTT | 0.05
10 | TTAGGCACGTGCTAGT | -0.25
11 | CTAAGCACGTGTAGTT | -0.06
12 | GGTCGCACGTGATTTG | 0.24
13 | TATAGCACGTGTCTAG | 0.02
14 | ATGCTCACGTGGAATG | 0.29
15 | ATTGACACGTGGATAA | 0.13
16 | CTATGCACGTGTAGGG | -0.05
17 | GGAGCCACGTGTTTGG | -0.02
18 | GTTTCCACGTGGTTTA | 0.1
19 | TTGTACACGTGGTAGG | -0.03
20 | GATTTCACGTGACGGT | 0.34
21 | GTTTCCACGTGGGCGG | 0.07
22 | TTGCCCACGTGGTTGG | -0.08
23 | TACAGCACGTGGTGGT | -0.24
24 | CTGTTCACGTGATCTG | 0.34
25 | TTGAACACGTGAGGTG | 0.23

Row | Sequence | relative binding free energy [kcal/mol]
26 | ATTACCACGTGTTTTT | -0.08
27 | GTATGCACGTGTGAGG | 0.01
28 | ATGTGCACGTGGCCGT | 0
29 | TGTCACACGTGCGTTG | 0.02
30 | TTTTACACGTGTCGGG | 0.14
31 | TAGTTCACGTGTAACT | 0.24
32 | AGGCGCACGTGTTAAG | 0
33 | TTTTCCACGTGTATTT | 0.02
34 | TCGTGCACGTGGGTGA | -0.15
35 | TGGGGCACGTGGAGTC | -0.02
36 | TAATTCACGTGGAAAG | 0.49
37 | GGTGACACGTGGGCAA | -0.03
38 | ATTTGCACGTGCCGTT | 0.02
39 | CTGGTCACGTGTGGCT | 0.13
40 | GGGGGCACGTGAGGCG | 0.1
41 | TAAGTCACGTGTACTT | 0.15
42 | TTAGCCACGTGTTGTA | -0.11
43 | GGGTGCACGTGCCGTG | -0.04
44 | GTGGTCACGTGACTTT | 0.22
45 | AGGTTCACGTGCTAGA | 0.38
46 | GTACACACGTGTGTTG | 0.08
47 | TGGTTCACGTGCCGGC | 0.28
48 | CGATTCACGTGGTATA | 0.23
49 | TGCGGCACGTGGTGTA | -0.2
50 | TGACGCACGTGGTAAG | 0.04

Row | Sequence | relative binding free energy [kcal/mol]
51 | TTGGACACGTGTAAAG | 0.19
52 | ATATACACGTGTGTAG | 0.13
53 | CATTACACGTGCGGGT | 0.17
54 | GGTGGCACGTGTGCCG | -0.03
55 | GTAGACACGTGGGTGC | -0.05
56 | ACGTTCACGTGGGGTA | 0.04
57 | GGCCTCACGTGTGGGA | 0.24
58 | TGCTGCACGTGATTGT | 0.35
59 | AGGTGCACGTGCAAGT | -0.07
60 | TATGTCACGTGGCTAT | 0.01
61 | CGGATCACGTGATGGG | 0.4
62 | TCGTACACGTGTTTAT | 0.06
63 | AATGGCACGTGATTTT | 0.12
64 | GGTGGCACGTGAATAA | 0.09
65 | ATTTACACGTGCGCGG | 0.02
66 | GTTGACACGTGATTAT | 0.12
67 | TTTTTCACGTGCTAGT | 0.28
68 | AAGTACACGTGATGAG | 0.17
69 | GGACGCACGTGGGCGG | -0.31
70 | ATGTTCACGTGGTGAC | 0.28
71 | ATATGCACGTGTGGAG | -0.07
72 | GTTTACACGTGGAAAT | 0.29
73 | AGTAGCACGTGCTTGT | -0.2
74 | TGTCACACGTGTGAGG | 0.1
75 | TTTTTCACGTGTGCCG | 0.28

Row | Sequence | relative binding free energy [kcal/mol]
76 | GTGGTCACGTGGACAG | 0.01
77 | GATATCACGTGATTTT | 0.34
78 | AGATTCACGTGCGGGT | 0.17
79 | GTGCTCACGTGACGTG | 0.38
80 | TTCACCACGTGTGGGG | -0.02
81 | TGGTTCACGTGTCGTG | 0.22
82 | AGGATCACGTGGTTAC | 0.12
83 | TTTTGCACGTGGGGGA | -0.12
84 | GTTGCCACGTGGCAGG | -0.1
85 | TGATTCACGTGGATCG | 0.37
86 | AGGGGCACGTGTCAAG | -0.28
87 | GTCGTCACGTGTGATA | 0.21
88 | CAGGGCACGTGCTGTT | -0.2
89 | CGTGTCACGTGATTAG | 0.25
90 | GCTCTCACGTGGGTGT | 0.18
91 | TGTTGCACGTGGCGTC | -0.01
92 | GTTCTCACGTGGAGTT | 0.33
93 | CGTGACACGTGAGTTG | 0.18
94 | CAGTGCACGTGTTAGT | 0.03
95 | GGGTGCACGTGGAGAC | -0.06
96 | GGGGTCACGTGGACGA | 0.16
97 | AGTGGCACGTGGCACG | -0.31
98 | GTGATCACGTGGGAAG | 0.02
99 | GCGGTCACGTGGTTGT | 0.09
100 | TATGTCACGTGTTTTT | 0.18

Row | Sequence | relative binding free energy [kcal/mol]
101 | ATAGTCACGTGGAATA | 0.18
102 | GTTGACACGTGTGGCG | 0.02
103 | GTTTCCACGTGATTTG | 0.23
104 | AATGGCACGTGAGTGG | 0.09
105 | GAAATCACGTGGAGTG | 0.34
106 | TTGAACACGTGTGATA | 0.15
107 | GGGAGCACGTGGGGAG | -0.19
108 | AGCGTCACGTGCAGGT | -0.01
109 | CGTATCACGTGTCGTG | 0.13
110 | GGGTACACGTGGCAAT | 0.06
111 | TATTACACGTGAATTT | 0.33
112 | GAGTTCACGTGAGCGT | 0.26
113 | ATTGACACGTGGTACG | -0.1
114 | AGGGGCACGTGAAAGT | 0.16
115 | AGTGTCACGTGATGGT | 0.12
116 | GTCACCACGTGGTGGT | 0.03
117 | TTGTGCACGTGATAAT | 0.08
118 | AGTGACACGTGTTGTA | -0.06
119 | GGGTTCACGTGCTGTC | 0.33
120 | TTAATCACGTGTGAAT | 0.28
121 | TGTAGCACGTGTAGTC | 0.02
122 | ATAGTCACGTGGGAGG | 0.01
123 | TGTATCACGTGCACGG | 0.08
124 | CGGTGCACGTGAACGG | 0.2
125 | AAAGGCACGTGGTCGG | -0.23

Row | Sequence | relative binding free energy [kcal/mol]
126 | GAGTTCACGTGATGGG | 0.54
127 | TGTGTCACGTGCGTGC | -0.07
128 | GTAGTCACGTGTATAT | 0.21
129 | GAGTTCACGTGGATGG | 0.35
130 | CGTGACACGTGGAGGG | -0.06
131 | TGATGCACGTGCAGGT | -0.09
132 | TGCGTCACGTGCTGGG | 0.08
133 | TGTATCACGTGTTCAA | 0.08
134 | CGATGCACGTGGGTTG | -0.26
135 | CGGAGCACGTGTCTGG | 0.05
136 | TAGAACACGTGTGGCG | 0.06
137 | TTGAGCACGTGGCTAA | -0.12
138 | ATAGTCACGTGTTTAT | 0.15
139 | GGGCTCACGTGGGCAG | -0.02
140 | ATGAGCACGTGAGAAG | 0.23
141 | GACTTCACGTGGCTTG | 0.53
142 | CTGAACACGTGAGGGG | 0.22
143 | AATGACACGTGAGGAT | 0.25
144 | TGTTGCACGTGTAGCA | 0.07
145 | GTCGTCACGTGTGCAG | 0.24
146 | AGTGACACGTGAGGTT | 0.24
